The other results are listed elsewhere or left out.
How the values were obtained:
HSkMC = human skeletal muscle cells; experiment: cytotoxicity call (relative viability < 0.9); settings: 10 µM
HepG2 = experiment: cytotoxicity call (relative viability < 0.9); settings: 10 µM
S. aureus RN4220 = experiment: growth inhibition call (relative growth <= 0.2); settings: 50 µM

C[C@@H]1CN([C@@H](C)CO)C(=O)Cc2cc(NC(=O)Cc3ccccc3)ccc2O[C@@H]1CN(C)C(=O)Nc1cccc2ccccc12
inactive: cytotoxicity call (HSkMC) | cytotoxicity call (HepG2) | growth inhibition call (S. aureus RN4220)

CCCC1CCC(c2ccc(OC(=O)c3cccnc3)cc2)CC1 (stereo not given)
inactive: cytotoxicity call (HSkMC) | cytotoxicity call (HepG2) | growth inhibition call (S. aureus RN4220)

CN(C)CCN1C[C@@H]2CN(C(=O)[C@H]3CCCO3)C[C@H]2C1=O
inactive: cytotoxicity call (HSkMC) | cytotoxicity call (HepG2) | growth inhibition call (S. aureus RN4220)

C[C@H](CO)N1C[C@H](C)[C@@H](CN(C)C(=O)Nc2cccc3ccccc23)Oc2ccc(NC(=O)Cn3cnnn3)cc2C1=O
inactive: cytotoxicity call (HSkMC) | cytotoxicity call (HepG2) | growth inhibition call (S. aureus RN4220)

O=C(C[C@@H]1C[C@@H]2c3cc(NC(=O)Cc4ccncc4)ccc3O[C@@H]2[C@H](CO)O1)NCc1ccc2c(c1)OCO2
inactive: cytotoxicity call (HSkMC) | cytotoxicity call (HepG2) | growth inhibition call (S. aureus RN4220)

C[C@H](CO)N1C[C@H](C)[C@@H](CN(C)Cc2ccc3c(c2)OCO3)OCCCC[C@H](C)Oc2ccc(NC(=O)NC3CCCCC3)cc2C1=O
inactive: cytotoxicity call (HSkMC) | cytotoxicity call (HepG2) | growth inhibition call (S. aureus RN4220)

C[C@H](CO)N1C[C@H](C)[C@H](CN(C)C(=O)N[C@H](C)c2ccccc2)OCc2ccccc2-c2c(n(C)c3ccccc23)C1=O
inactive: cytotoxicity call (HSkMC) | cytotoxicity call (HepG2) | growth inhibition call (S. aureus RN4220)

CC(C)NC(=O)Nc1cccc2c1O[C@H](CN(C)C(=O)NC1CCCCC1)[C@H](C)CN([C@@H](C)CO)C2=O
inactive: cytotoxicity call (HSkMC) | cytotoxicity call (HepG2) | growth inhibition call (S. aureus RN4220)

COC(=O)C1=C(N)N(c2cccc(C(F)(F)F)c2)C2=C(C(=O)CC(C)(C)C2)[C@@H]1c1ccc(OC)cc1
inactive: cytotoxicity call (HSkMC) | cytotoxicity call (HepG2) | growth inhibition call (S. aureus RN4220)

C[C@@H]1CCCCO[C@@H](CN(C)C(=O)Nc2ccc(C(F)(F)F)cc2)[C@@H](C)CN([C@H](C)CO)C(=O)c2cc(NC(=O)c3ccccc3)ccc2O1
inactive: cytotoxicity call (HSkMC) | cytotoxicity call (HepG2) | growth inhibition call (S. aureus RN4220)

— the antibiotic and cytotoxicity screens of Wong et al. (2023)
